Here are results for 92 compounds from PubChem BioAssay AID463173 (ICCB-Longwood Screening Facility, Harvard Medical School, 2010).

About 1,700 (3.3%) of roughly 52,000 compounds were called active. Rule as the data show it: active = survival mostly below about 52% (no sharp cut-off); inactive = mostly above about 56%. Some of the results follow.

This assay concerns Wild type. Kind of assay: S. aureus survival, RN4220 and DeltatarO strains – OD600, teichoic acid synthesis inhibitors, primary screen (AID 463173). To be noted: S. aureus RN4220 wild type/DeltatarO growth, OD600, 18 h, hits give low values, screened at 18.75 µg/mL (by protocol).
Consider `COc1cccc(N2CCN(C(=O)c3cccn3-c3nnc(N4CCCCC4)s3)CC2)c1`, for which the survival was inactive: 94%.

For the compound `CCC1CCCCN1CCCNC(=O)c1cn(C)c2ccc(S(=O)(=O)N(C)C3CCCCC3)cc2c1=O` (configuration not stated), the survival was inactive: 86%.

For `Cc1ccc(-c2noc(CNC(C)C)n2)cc1`, the survival is inactive: 104%. To `COc1ccc(-c2cc(C(=O)Nc3ccc4c(c3)OCO4)no2)cc1` belongs inactive: 88%. Next, `COc1cc(/C=C(/C#N)c2nc(-c3cc4ccccc4oc3=O)cs2)ccc1O`: inactive: 120%; `COc1cccc(C=Nc2cccc3c(=O)[nH][nH]c(=O)c23)c1O`: inactive: 104%; `CC1CCCCN1C(=O)CSc1nc(-c2ccccc2)no1` (configuration not stated): inactive: 73%. Next, `Cc1cccc(NC(=O)CSc2nc3c([nH]c4ccccc43)c(=O)n2-c2cc(C)cc(C)c2)c1`: inactive: 73%; `Cc1c(Cl)cccc1NC(=O)Nc1c[nH]c(=O)[nH]c1=O`: inactive: 72%; `COc1cc(OC)cc(C(=O)Nc2nc(-c3nnn(-c4ccc(C)cc4)c3C)ns2)c1`: inactive: 133%.

As to `CCn1c(O)c(C=Nc2cccc(O)c2)sc1=S`, the survival is inactive: 115%. To `CCOC(=O)C1=C(CN2CCC(C)CC2)NC(=O)NC1c1ccc(OC(C)C)cc1` (configuration not stated) belongs inactive: 78%; to `O=C(Cc1ccccc1)NC1CCS(=O)(=O)C1` (configuration not stated), inactive: 96%. Next, `CSc1cccc(-n2nnc(-c3nsc(NC(=O)c4cccs4)n3)c2C)c1`: inactive: 80%; `COc1ccc(Br)cc1CNC(=O)Cn1nc(C)n2c(cc3cc(F)ccc32)c1=O`: inactive: 75%. On to `CCOC(=O)c1ccccc1NC(=O)CSc1nc(=O)[nH]c2c1CCCC2`, for which the survival is inactive: 68%. To `COc1ccc(NC(=O)c2ccco2)cc1NC(=O)c1cc2ccccc2o1` belongs inactive: 123%; to `CC(OC(=O)c1ccco1)C(=O)NC1CCCC1` (configuration not stated), inactive: 110%.

For the compound `COc1ccc(-n2c(C)nc3c(cnn3-c3ccc(C)c(C)c3)c2=O)cc1Cl`, the survival was inactive: 118%. Turning to `CCS(=O)(=O)N1CCCc2cc(C(=O)Nc3cc([N+](=O)[O-])ccc3C)ccc21`, the survival is inactive: 81%.

Turning to `Cc1ccc(NC(=O)CN2C(=O)C(c3ccccc3)=NC23CCCCC3)cc1C`, the survival was inactive: 89%. To `CCc1ccc2occ(CC(=O)N(Cc3ccccc3)C3CCS(=O)(=O)C3)c2c1` (configuration not stated) belongs inactive: 77%; to `Cc1nc2ccccc2n1C1CCN(C(=O)NC2CCCCC2)CC1`, inactive: 129%; to `CCN(CC)CCCNC(=O)c1cn(CC)c2ccc(S(=O)(=O)N3CCC(C)CC3)cc2c1=O`, inactive: 91%.

On to `Cc1cc(=O)n(CC(=O)N2CCCCC2)c2c1c(C)nn2C`, for which the survival was inactive: 83%. Next, `COc1ccc(Nc2nc3c(S(=O)(=O)c4ccccc4)nnn3c3ccc(Cl)cc23)cc1`: inactive: 133%. In the case of `COc1cccc(CNC(=O)Cn2c(=O)ccc3cc(S(=O)(=O)N4CCCC4)ccc32)c1`, the survival is inactive: 73%. To `CCc1ccc(S(=O)(=O)c2nnn3c2nc(N(C)Cc2ccccc2)c2cc(Cl)ccc23)cc1` belongs inactive: 94%; to `CN(C1CCCCC1)S(=O)(=O)c1ccc2c(c1)c(=O)c(C(=O)N1CCN(c3ccccc3)CC1)cn2C`, inactive: 82%. Next, `O=C(O)c1ccc(NC(=O)c2ccc(Cl)c(S(=O)(=O)N3CCCCCC3)c2)cc1`: inactive: 137%; `COC(=O)c1ccc(NC(=O)C(C)Sc2nc(=O)cc(N)n2CCc2ccccc2)cc1` (configuration not stated): inactive: 124%; `CCC(=O)Nn1cnc2c(c1=O)C1(CCCCC1)Cc1ccccc1-2`: inactive: 113%.

For `O=S(=O)(NCCS(=O)(=O)N1CCN(c2ccccc2)CC1)c1ccccc1`, the survival was inactive: 81%. To `Cc1nc2c3ccccc3nc(NNC(=O)CCC(=O)O)n2n1` belongs inactive: 83%.

Turning to `COc1ccc(CCNC(=O)c2ccc3c(c2)nc(C)n3-c2ccc(Br)cc2)cc1OC`, the survival is inactive: 53%. Next, `Cc1ccc(NC(=O)CN2C(=O)CCSc3ccccc32)c(C)c1`: inactive: 74%. To `O=C(Nc1ccc(Cl)cc1Cl)c1cc(S(=O)(=O)NCc2ccc3c(c2)OCO3)ccc1F` belongs inactive: 87%; to `Cc1ccc(Cn2c(CO)cnc2SCc2ccc(F)cc2)cc1`, inactive: 120%. Next, `Cn1c(=O)c2c(nc3n2Cc2c(Cl)cccc2N3CCNC(=O)C2CCC2)n(C)c1=O`: inactive: 109%; `Cc1ccccc1NC(=O)c1cc2c([nH]c1=O)CC(C)(C)CC2=O`: inactive: 65%. Consider `N#CC1=C(N)OC2=C(C(=O)CCC2)C1c1ccoc1` (configuration not stated), for which the survival is inactive: 106%. Next, `COc1ccc(-c2cc(C(=O)Nc3cc(C(F)(F)F)ccc3Cl)no2)cc1`: inactive: 87%; `COc1ccccc1Cn1cc(C(=O)c2ccccc2)c(=O)c2cc(OC)c(OC)cc21`: active: 10%.

As to `Cc1nn(CCC(=O)Nc2ccc(Cl)cc2)c(C)c1S(=O)(=O)N1CCCCC1`, the survival was inactive: 124%.

Take `CN(C)c1ccc(CNC(=O)C2CCN(c3nnc(-n4cccc4)s3)CC2)cc1`: the survival was inactive: 45%. To `CCOc1ccc(C(=O)Nc2ccc(-c3cc4ccccc4oc3=O)cc2)cc1Br` belongs inactive: 75%; to `Cc1ccc(-n2ncc3c(=O)n(Cc4cccc(Cl)c4)cnc32)cc1C`, inactive: 88%. Consider `Cc1ccc(CSc2nc3cccnc3n2Cc2ccc(C(=O)NC3CC3)cc2)cc1`, for which the survival is inactive: 63%. Next, `O=C(NCc1ccccc1)c1cccn1-c1nnc(N2CCCCC2)s1`: inactive: 79%; `COc1cc(OC)c(NC(=O)C2=C(C)C(=O)OC23CCN(C(C)=O)CC3)cc1Cl`: inactive: 63%; `CCc1cccc(NC(=O)C2CCN(S(=O)(=O)c3ccc(Br)s3)CC2)c1`: inactive: 66%. As for `O=C1Nc2ccc(S(=O)(=O)Nc3ccccc3)c3cccc1c23`, the survival was inactive: 106%. To `CCSc1nnc(C2CCCN(Cc3cccnc3)C2)n1C(C)C` (configuration not stated) belongs inactive: 121%; to `CCOc1ccccc1CNC(=O)c1cnn(-c2ccc(C)cc2)c1-n1cccc1`, active: 10%; to `Cc1ccc(C)c(NC(=O)Nc2cc3c(cc2N2CCCCC2)n(C)c(=O)n3C)c1`, inactive: 89%.

For the compound `COc1ccc(Cn2c(C(=O)O)c(CNCc3ccco3)c3ccc(C)cc32)cc1`, the survival is inactive: 59%. To `Cc1ccc(NC(=O)Cn2cnc3c(oc4ccccc43)c2=O)cc1Cl` belongs inactive: 88%; to `COc1ccc(NC(=O)CCCOc2cc(=O)n(C)c3ccccc23)c(OC)c1`, inactive: 155%; to `COCCNC(=O)CSc1c(C)cnc2c1c(=O)n(C)c(=O)n2C`, inactive: 87%.

For `CC1CCC(=O)C(C2(O)C(=O)Nc3ccccc32)C1` (configuration not stated), the survival is inactive: 110%. Next, `CCCn1c2ccccc2c2cnn(CC(=O)NCCc3ccc(S(N)(=O)=O)cc3)c(=O)c21`: inactive: 134%.

Take `Cn1c(NCc2cccc(Cl)c2)nc2ccccc21`: the survival is inactive: 106%. To `CCN(C(=O)c1ccc(C(=O)N(CC)c2ccccc2C)cc1)c1ccccc1C` belongs inactive: 71%; to `CCOc1ccc(NC(=O)c2cc3cc4ccc(C)cc4nc3o2)cc1`, inactive: 79%; to `C=Cc1ccc(CN2C(=O)N(c3ccc(C)c(C)c3)S(=O)(=O)c3ccccc32)cc1`, inactive: 71%. To `COc1ccccc1C(=O)Nc1nnc(SCc2cc(=O)c3ccccc3[nH]2)s1` belongs inactive: 72%; to `O=C(CSc1ncccn1)N1CCc2ccccc2C1`, inactive: 100%. Next, `N#C/C(=C\c1cn(CC(=O)N2CCCC2)c2ccccc12)C(=O)NC1CC1`: inactive: 103%; `Cc1ccc(-n2c(=O)c3ccc(C(=O)NCc4ccco4)cc3n(Cc3ccccc3Cl)c2=O)cc1`: inactive: 86%.

With `CCOC(=O)c1c(-c2cccs2)csc1NC(C)=O`, the survival was inactive: 102%. Next, `Brc1cccc(-c2nnn3c2nc(NC2CCCCC2)c2ccccc23)c1`: inactive: 80%; `Cc1nn(-c2ccc(N3CCOCC3)nn2)c(C)c1CCC(=O)NCc1ccc(Cl)cc1`: inactive: 136%; `O=C(COc1ccc(Cl)cc1)N1CCCCC1`: inactive: 102%. Next, `CCS(=O)(=O)c1ncc(Cl)c(C(=O)Nc2ccc(S(=O)(=O)N(C)c3ccccc3)cc2)n1`: active: 8%. Consider `CC1CCCCN1CCNC(=O)c1ccc(Cn2c(SCc3ccccc3)nc3cccnc32)cc1` (configuration not stated), for which the survival is inactive: 93%.

For `Nc1n[nH]c(CCc2ccccc2)n1`, the survival was inactive: 121%. Turning to `CCN1CCN(C(C)C(=O)NC(c2ccccc2)c2ccccc2)CC1` (configuration not stated), the survival was inactive: 113%. To `COc1ccc2nc3sc(C(=O)NCCc4ccc(Cl)cc4)cc3cc2c1` belongs inactive: 92%.

As to `Cn1c(=O)c2c(n3nnnc13)-c1ccccc1CC21CCCC1`, the survival is inactive: 107%.

`Cc1cccc(C)c1Nc1sc(C(=O)c2ccccc2)c(N)c1S(=O)(=O)c1ccccc1`: the survival was inactive: 90%. To `Cn1cc2ccc(N)cc2n1` belongs inactive: 98%; to `Cc1ccc(CCNC(=O)c2cc(-c3ccccc3)n[nH]2)cc1`, inactive: 73%; to `CCN(C(=O)c1sc2nc3n(c(=O)c2c1C)CCCC3)c1ccccc1F`, inactive: 82%. Next, `CC(=O)c1ccc(NC(=O)CSc2nnc3ccc(-c4ccc(F)cc4)nn23)cc1`: inactive: 68%. In the case of `Cc1cccc(NC(=O)C2CCCN2S(=O)(=O)c2cccc3nsnc23)c1C` (configuration not stated), the survival was inactive: 72%.

For `CCC1=C(c2ccc(C)cc2)S(=O)(=O)N=C1N1CCC(C(=O)Nc2ccccc2C(=O)OC)CC1`, the survival was inactive: 71%. On to `CN(C)c1ccc(C(CNC(=O)c2ccc(C(C)(C)C)cc2)N2CCCC2)cc1` (configuration not stated), for which the survival was inactive: 101%. Next, `Cc1cn2c(=O)cc(COc3ccc(NC(=O)c4ccc(C(C)(C)C)cc4)cc3)nc2s1`: inactive: 129%; `COc1ccc(CNC(=O)CCc2c(C)nn(-c3ccc(N4CCOCC4)nn3)c2C)c(OC)c1`: inactive: 58%.

For the compound `CCOC(=O)c1ccc(NC(=O)CN2C(=O)C(C)(C)c3ccccc32)cc1`, the survival is inactive: 111%.

Consider `CCc1nc(C)ccc1O`, for which the survival is inactive: 103%. Next, `Cc1ccc(C)c(NC(=O)c2cnn(-c3ccc(F)cc3F)c2C2CCNCC2)c1`: inactive: 77%.
